Results from the supplement of paper PMC7125110.
This sample is rich in variants without activity.

B1: glmS ribozyme (parent)
chain: AUAAAAGCGCCAGAACUACAGAAAUGUAGUUGACGAGGAGGAGGUUUAUCGAAUUUUCGGCGGAUGCCUCCAAA

How the values were obtained:
Conditions in all cases: with glucosamine-6-phosphate
[1] = variants of: B1; test: kcat; higher = faster cleavage; RNA array
Procedure, shortened: (§1)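 E. coli RNA polymerase transcribed barcoded ribozyme variants in situ on sequenced MiSeq chips, which were tracked via a hybridised Cy3 probe at 37 °C. Tiles were imaged over ~14 h after glucosamine-6-phosphate (40 μM to 10 mM) in HEPES/KCl/Mg(OAc)2 buffer was flowed in. Normalised per-tile medians were fit to one- or two-exponential decays for kobs, and kcat and KM came from weighted Michaelis–Menten fits.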

[2] = variants of: B1; test: self-cleavage kobs at 160 uM GlcN6P; higher = faster cleavage; RNA array
Procedure, shortened: as §1

[3] = variants of: B1; test: self-cleavage kobs at 640 uM GlcN6P; higher = faster cleavage; RNA array
Procedure, shortened: as §1

[4] = variants of: B1; test: self-cleavage kobs at 40 uM GlcN6P; higher = faster cleavage; RNA array
Procedure, shortened: as §1

[5] = variants of: B1; test: self-cleavage kobs at 10000 uM GlcN6P; higher = faster cleavage; RNA array
Procedure, shortened: as §1

[6] = variants of: B1; test: self-cleavage kobs at 2500 uM GlcN6P; higher = faster cleavage; RNA array
Procedure, shortened: as §1

Variant | kcat [1] [s⁻¹] | self-cleavage kobs at 160 uM GlcN6P [2] [s⁻¹] | self-cleavage kobs at 640 uM GlcN6P [3] [s⁻¹] | self-cleavage kobs at 40 uM GlcN6P [4] [s⁻¹] | self-cleavage kobs at 10000 uM GlcN6P [5] [s⁻¹] | self-cleavage kobs at 2500 uM GlcN6P [6] [s⁻¹]
G51C C68U | < 1e-05 | < 1e-05 |  |  |  | 
C10A C19A U31G G66A C70U | < 1e-05 |  |  |  |  | 
G7U C70U | < 1e-05 | < 1e-05 | < 1e-05 |  |  | 
G9A G51U | < 1e-05 | < 1e-05 | < 1e-05 | < 1e-05 | < 1e-05 | 
A12U A36C | < 1e-05 | < 1e-05 |  |  |  | 
U57A G63C | < 1e-05 |  |  | < 1e-05 |  | 
C11A G13C | < 1e-05 |  |  | < 1e-05 |  | 
A6U G51U C71U | < 1e-05 |  | < 1e-05 |  |  | 
A15U U46G G51U | < 1e-05 |  |  | < 1e-05 |  | < 1e-05
A42C U57C | < 1e-05 |  | < 1e-05 | < 1e-05 | < 1e-05 | 
C11A A36U | < 1e-05 | < 1e-05 |  | < 1e-05 |  | 
C50A G66U | < 1e-05 |  |  |  |  | 
G9U C58G | < 1e-05 | < 1e-05 | < 1e-05 |  | < 1e-05 | 
G38U U55A | < 1e-05 |  |  |  | < 1e-05 | 
U31C G43U | < 1e-05 |  | < 1e-05 |  |  | 
A33C A53C | < 1e-05 | < 1e-05 |  |  |  | 
A33G G35C | < 1e-05 |  |  | < 1e-05 | < 1e-05 | 
A36U U47G | < 1e-05 |  |  |  |  | 
A6C G32C U49C | < 1e-05 |  |  |  |  | < 1e-05
A6C G32A | < 1e-05 |  |  | < 1e-05 |  | 
G32U C61A | < 1e-05 |  | < 1e-05 |  |  | 
G29A C61A | < 1e-05 |  |  |  |  | 
G37U G66U | < 1e-05 |  |  |  |  | 
C34G G66U | < 1e-05 |  |  |  | < 1e-05 | 
A42U G59A | < 1e-05 |  | < 1e-05 | < 1e-05 |  | < 1e-05

Variant | kcat [1] [s⁻¹] | self-cleavage kobs at 160 uM GlcN6P [2] [s⁻¹] | self-cleavage kobs at 640 uM GlcN6P [3] [s⁻¹] | self-cleavage kobs at 40 uM GlcN6P [4] [s⁻¹] | self-cleavage kobs at 10000 uM GlcN6P [5] [s⁻¹] | self-cleavage kobs at 2500 uM GlcN6P [6] [s⁻¹]
G29A A64U | < 1e-05 |  | < 1e-05 | < 1e-05 |  | < 1e-05
G44C G51C | < 1e-05 |  |  | < 1e-05 | < 1e-05 | 
G29C A36C G43U | < 1e-05 | < 1e-05 | < 1e-05 |  | < 1e-05 | 
C16A A64C | < 1e-05 |  |  | < 1e-05 |  | 
A36C G38U | < 1e-05 | < 1e-05 |  | < 1e-05 | < 1e-05 | 
U31C A36G | < 1e-05 |  |  | < 1e-05 | < 1e-05 | 
C8U G62C | < 1e-05 | < 1e-05 |  |  |  | < 1e-05
A6U G63C | < 1e-05 | < 1e-05 |  | < 1e-05 | < 1e-05 | < 1e-05
A48G G51A | < 1e-05 |  |  | < 1e-05 | < 1e-05 | 
G37A G60A | < 1e-05 | < 1e-05 |  |  |  | 
G59A G60C | < 1e-05 | < 1e-05 |  |  |  | 
A42C G62A | < 1e-05 | < 1e-05 | < 1e-05 |  | < 1e-05 | 
A52U U57C | < 1e-05 | < 1e-05 | < 1e-05 | < 1e-05 |  | 
G37U U49C | < 1e-05 |  |  | < 1e-05 | < 1e-05 | 
G7A C11U | < 1e-05 |  |  | < 1e-05 |  | 
A12C A36U | < 1e-05 |  |  | < 1e-05 |  | 
G7A C68A | < 1e-05 |  |  |  |  | 
G40A G44C | < 1e-05 |  | < 1e-05 | < 1e-05 |  | 
A33U G35C | < 1e-05 | < 1e-05 | < 1e-05 |  | < 1e-05 | 
G38A U47G | < 1e-05 |  | < 1e-05 |  |  | 
A36C U47G | < 1e-05 |  |  |  |  | 
G38C G51A | < 1e-05 |  |  |  | < 1e-05 | 
C10U A36C | < 1e-05 |  |  |  |  | 
G51A G60A | < 1e-05 |  | < 1e-05 |  | < 1e-05 | 
